Source: the supplement of paper PMC10338343
± gives the standard deviation. This is a selection; strong and weak results do not stand in their true shares.

These sequences were tested on MIWI (PIWIL1) piRISC loaded with L1MC piRNA (30 nt) (assay: pre-steady-state target cleavage rate (min^-1); MIWI and MILI are mouse PIWI proteins and EfPiwi is from a freshwater sponge; tags in brackets are library labels; higher = faster piRNA-guided slicing of the target). Conditions: guide: L1MC piRNA 5'p-UAACUAAAUACUAUGCAAGCUGUAGGUCCU; auxiliary factor: none (no GTSF1).
In short: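 Reactions were run for 0–8 or 0–960 min at 33 °C in HEPES–potassium acetate buffer, combining 1 nM active affinity-purified piRISC with one synthetic guide, […] transcribed, DNA-blocked target RNA library and, in some cases, 500 nM GTSF1 partner protein. Sequencing of uncleaved targets followed, with normalisation to depth and to weakly complementary targets. Three trials were pooled, k3 was capped at 0.0001 min^-1, and the pre-steady-state cleavage rate was taken from a burst-and-steady-state fit.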
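Note: 1 nM active piRISC with 0.1 nM target library at 33 °C single turnover.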

Sequence | pre-steady-state target cleavage rate
UCGACCUACUGCUUGCAUAGUAUUUAGUUA | 0.0694 ± 0.011
UCCUGGAACAGCUUGCAUAGUAUCUUAGUUA | 0.0258 ± 0.0072
UGGAGCUACAGCUUGCAUAGUAUUAAGUUA | 0.0384 ± 0.0088
UCCUGGAACUGCUUGGAUAGUAUUUAGUUA | 0.0313 ± 0.0076
AGGAGGAACAGCUUGCAUAGUAUUUACAAA | 0.00664 ± 0.002
UCCUGGAUGAAGCUUGCAUAGUAUUUAGUUA | 0.0807 ± 0.017
UCGACCUACAGCUUGGAUAGAAUUUAGUUA | 0.0154 ± 0.0035
UCCACCUACAGCUUGGAUAGUUUUUAGUUA | 0.0183 ± 0.0036
AGGACCUACAGCUUGCUUAGUAUUUUGUUA | 0.0276 ± 0.0071
UCCUGGAACACCUUGCAUAGAAUUUAGUUA | 0.00572 ± 0.0024
UCCUGGAACAGCUUGCAUAGUUUUUACUUA | 0.0143 ± 0.0048
UGGACCUACAGCUUGCAUAGUAUUUAGAAA | 0.0136 ± 0.0046
UCCUGGAUGUCCUUGCCUAGUAUUUAGUUA | 0.00418 ± 0.0022
UCCACCUACAGCUUGCAUAGUAUAAUGUUA | 0.0117 ± 0.0029
UCCUGGAUGAGCUUGAAUAGUAUUUAGUUA | 0.0233 ± 0.007
